For ten molecules, EC50 and IC50 results are on record in patent US20220372150A1 (ZHEJIANG DOER BIOLOGICS, published 2022).

In test [1] the target is T1, PDL1-HSA fusion protein composed of PDL1 extracellular domain and human serum albumin (human).
T1 construct: The entry is the whole fusion: PD-L1 extracellular domain, linker, human serum albumin; also called Human PDL1-HSA; hPDL1-HSA
The experiment in a line: ELISA on coated PDL1-HSA, anti-human Fc detection.

Test [2] concerns the target T1, PDL1-HSA fusion protein composed of …. The experiment in a line: competitive ELISA on coated PDL1-HSA; competitor bio-PD1-Fc (4 µg/mL, mixed in equal volume).

B1: Anti-PDL1-1D7-FC (Fc fusion)
chain: QVQLVESGGGLVQPGGSLRLSCAASGRAFLTYAMGWFRQAPGKEREFVAAISWSGSSTYYADSVKGRFTISRDNAKNMVYLQMNSLKPEDTAVYYCAAKVSGATRDHLMTTYDYWGQGTQVTVSS[human IgG1 Fc not spelt out]
The molecule B1 yielded an EC50 in test [1] of 0.07 nM. For the same molecule, the IC50 in test [2] amounted to 0.0433 µg/mL.

B2: Anti-PDL1-1D1V3-Fc (Fc fusion)
chain: QVQLVESGGGLVQPGGSLRLSCAASGGTFITYAMGWFRQAPGKGLEFVAGISWSGSSTYYADSVKGRFTISRDNSKNTLYLQMNSLRAEDTAVYYCAAKISGATREHLMTSYDYWGQGTLVTVSS[human IgG1 Fc not spelt out]
notes: also called hu1D1V3 fused with human IgG1 Fc
As for B2, the EC50 in test [1] came to 0.1 nM. This molecule gave an IC50 in test [2] of 0.0346 µg/mL.

B3: Anti-PDL1-5A8V3-Fc (Fc fusion)
chain: QVQLVESGGGLVQPGGSLRLSCAASGGTFITYAMGWFRQAPGKGLEFVAGISWSGSSTYYADSVKGRFTISRDNSKNTLYLQMNSLRAEDTAVYYCAAKISGATREHLRTSYDYWGQGTLVTVSS[human IgG1 Fc not spelt out]
notes: also called hu5A8V3 fused with human IgG1 Fc
In test [1], B3 returned an EC50 of 0.08 nM. In test [2], this molecule registered an IC50 of 0.0335 µg/mL.

B4: Anti-PDL1-1D1-FC (Fc fusion)
chain: QLQLVESGGGLVQAGGSLRLSCAASGGTFITYAMGWFRQAPGKDREFVAGISWSGSSTYYTDSVKGRFTISRDNAKNTVYLQMNSLKPGDTAVYYCAAKISGATREHLMTSYDYWGQGTQVTVSS[human IgG1 Fc not spelt out]
B4 showed an EC50 in test [1] of 0.07 nM. In test [2], this molecule gave an IC50 of 0.0335 µg/mL.

B5: Anti-PDL1-1D7V3-Fc (Fc fusion)
chain: QVQLVESGGGLVQPGGSLRLSCAASGRAFLTYAMGWFRQAPGKGLEFVAAISWSGSSTYYADSVKGRFTISRDNSKNTLYLQMNSLRAEDTAVYYCAAKVSGATRDHLMTTYDYWGQGTLVTVSS[human IgG1 Fc not spelt out]
notes: also called hu1D7V3 fused with human IgG1 Fc
In the case of B5, in test [1], the response was half-maximal at 0.08 nM (EC50). In addition, the IC50 in test [2] was found to be 0.0377 µg/mL.

B6: Anti-PDL1-6F1V3-Fc (Fc fusion)
chain: QVQLVESGGGLVQPGGSLRLSCAASGRTFSTHSMGWFRQAPGKGLEFVAAINWNGDSTYYADSVKGRFTISRDNSKNTLYLQMNSLRAEDTAVYYCAARPGAPSTIVAMLDYWGQGTLVTVSS[human IgG1 Fc not spelt out]
notes: also called hu6F1V3 fused with human IgG1 Fc
As for B6, the EC50 in test [1] was determined as 0.09 nM. Besides, the IC50 in test [2] was 0.0396 µg/mL.

B7: Anti-PDL1-1G10-FC (Fc fusion)
chain: QVQLVESGGGLVQAGGSLRLSCAASGRPFITYAMGWFRQAPGKEREFVAAINWSGSITAYADSVKGRFTISRDNAKNAAYLQMNSLKPDDTAVYYCASKRTAVAPRALNDYDFWGQGTQVTVSS[human IgG1 Fc not spelt out]
For the molecule B7, the response in test [1] was half-maximal at 0.08 nM (EC50). For the same molecule, in test [2], the IC50 came to 0.0412 µg/mL.

B8: Anti-PDL1-1G10V3-Fc (Fc fusion)
chain: QVQLVESGGGLVQPGGSLRLSCAASGRPFITYAMGWFRQAPGKGLEFVAAINWSGSITAYADSVKGRFTISRDNSKNTLYLQMNSLRAEDTAVYYCASKRTAVAPRALNDYDFWGQGTLVTVSS[human IgG1 Fc not spelt out]
notes: also called hu1G10V3 fused with human IgG1 Fc
B8 registered an EC50 in test [1] of 0.1 nM. This molecule also showed an IC50 in test [2] of 0.0386 µg/mL.

B9: Anti-PDL1-1A7-FC (Fc fusion)
chain: QLQLVESGGDLVQPGGSLRLSCAASGSIFSANLIDWYRQPPGKQRELVAVISSRGITSYADSVKGRFTISRDNAKNTVYLQMNSLKPEDTAVYYCHLFHTDGLGYWGQGTQVTVSS[human IgG1 Fc not spelt out]
On to B9, for which the EC50 in test [1] is 0.07 nM. The IC50 in test [2] turned out to be 0.0435 µg/mL.

B10: Anti-PDL1-1A7V3-Fc (Fc fusion)
chain: QVQLVESGGGLVQPGGSLRLSCAASGSIFSANLIDWYRQAPGKGLELVAVISSRGITSYADSVKGRFTISRDNSKNTLYLQMNSLRAEDTAVYYCHLFHTDGLGYWGQGTLVTVSS[human IgG1 Fc not spelt out]
notes: also called hu1A7V3 fused with human IgG1 Fc
Turning to B10, the EC50 in test [1] is 0.09 nM. This molecule registered an IC50 in test [2] of 0.0335 µg/mL.
